From PubChem BioAssay AID1963576 (National Center for Advancing Translational Sciences (NCATS), 2024)
Out of some 46,000 compounds screened, about 60 (0.1%) were called active. Inconclusive results (about 3%) are left out. Calls follow the shape of the dose curve; as a rule, active = well fitted inhibition curve with a large enough effect; inconclusive = small, poorly fitted or top-dose-only effect; inactive = no such curve, though single readings can be large or run the other way. This is one part of the list.

Experiment: Primary qHTS assay for Inhibitors of ovarian cancer metastasis using an organotypic tumor microenvironment (TME) model. Also: nearly all actives have a fitted effect of over 65% in size.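 As to activity change, negative = inhibition: plate controls were DMSO wells for no effect and tomatine positive control wells for full effect.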
Settings: SKOV3ip1-GFP adhesion/invasion on 3D omental model, fluorescence; series mostly up to 45.8 µM; activity change, negative = inhibition: at the top concentration
How it was run: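 Primary human omental fibroblast/mesothelial 3D culture pre-formed 48 h. SKOV3ip1-GFP cells added with compounds (0.36-46 umol/L), incubated 2 h RT/16 h 37 C, fixed; GFP cells quantified at 488/509 nm.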

outcome, inactive:
Cc1ccc(Cc2nc3ccccc3nc2SCC(=O)Nc2cccc(C(F)(F)F)c2)cc1, CC(C)c1ccccc1NC(=O)CN1C(=O)c2cccc3cccc1c23, CCC(=O)Nc1ccc2nc(SCc3ccc(C)cc3)sc2c1, CC(C)c1cc(-c2nc(-c3ccccc3)no2)n[nH]1, Cc1ccc(Nc2cc(C)c(C#N)c3nc4ccccc4n23)cc1Cl, O=C(Cc1ccccc1)N(Cc1cccnc1)c1nc2ccc(F)cc2s1, COCCNC(=O)c1nn(-c2ccc(Cl)cc2)nc1CO, COc1cccc(N2CCN(C(=O)CCc3c(C)nc4c(c3C)c(=O)n(C)c(=O)n4C)CC2)c1, Cc1ccc(-c2nnc(SCc3cccc(C#N)c3)o2)cc1, CC(C)(C)c1ccc(-c2nc(SCCCOc3ccccc3)n3[nH]c(=O)cc3n2)cc1, Cc1ccc2c(c1)-c1c(cnc3cc(-c4ccccc4)nn13)CO2, CCCCN(CCCC)CCNC(=O)c1cn(CC)c2ccc(S(=O)(=O)N(C)C3CCCCC3)cc2c1=O, Cc1ccccc1NC(=O)CSc1nc2c(c(=O)n(C)c(=O)n2C)n1Cc1ccccc1F, CC(=O)N1CCc2c(sc3c2c(=O)n(CCc2ccccc2)c(=O)n3Cc2ccc(Cl)cc2)C1, O=C(CN1C(=O)CCc2cc(S(=O)(=O)N3CCOCC3)ccc21)NCc1ccccc1, CCc1ccccc1NC(=O)N(C)CCc1c(C)nn(C)c1C, Cc1cc(C)cc(S(=O)(=O)c2cn(C)c3cc(N4CCCC4)c(F)cc3c2=O)c1, CCCNC(=O)c1ccc2nc(CCc3ccccc3)oc2c1, Cc1ccc(C)c(CN2C(=O)N(c3cc(Cl)ccc3C)S(=O)(=O)c3ccccc32)c1, Cc1cccc(NC(=O)CCCCCn2c(=O)[nH]c3ccsc3c2=O)c1, CCOc1ccc(CCNC(=O)CCCn2nc(C)c3sc4ccccc4c3c2=O)cc1, CCOC(=O)C1CCCN(C(=O)c2cc3c(=O)[nH]c4ccc(C)cc4c3s2)C1 (stereo not given), CN(Cc1ccccc1)S(=O)(=O)c1cc(Br)cc2c1N(C(=O)C1CC1)CC2, COc1cccc(N2CC(NC(=O)CCCc3ccccc3)CC2=O)c1 (stereo not given), Cc1ccc(NS(=O)(=O)c2c(C)[nH]c(=O)[nH]c2=O)c(C)c1, Cc1ccccc1-c1nc2cc(NC(=O)Cc3ccc(Cl)cc3)ccc2o1

Activity change, negative = inhibition, inactive:
Cc1ccc(-c2cc(C(=O)Nc3c(C(=O)c4ccccc4)oc4ccccc34)no2)cc1F -1.67%, CC(C)(C)c1ccc(S(=O)(=O)NCc2nc3cccnc3n2Cc2ccccc2Cl)cc1 -18.8%, Cc1ccc(CNS(=O)(=O)c2c(C)nc3scc(C)n3c2=O)cc1 -4.69%, O=C(CSc1nc(-c2ccccc2)[nH]c1-c1ccccc1)Nc1ccc2c(c1)OCCO2 3.67%, Cc1nc(N2CCCC2)c2c(C(=O)N3CCN(c4cccc(C)c4C)CC3)c(C)oc2n1 -10.3%, COc1ccc(S(=O)(=O)N2CCN(Cc3ccc4c(c3)OCO4)CC2)cc1OC -5.65%, CN(CC(=O)Nc1ccccc1Cl)S(=O)(=O)c1ccc(C(=O)N2CCOCC2)s1 125%, CCCSCCCNC(=O)c1ccc2c(c1)nc1n2CCCCC1 -1.74%, O=C(CSc1ccccc1)NCc1ccc2c(c1)CCN2C(=O)c1ccc(F)cc1 3.07%, Cn1cnc(S(=O)(=O)N2CCC(C(=O)NCc3ccc(Cl)cc3)CC2)c1 2.35%, COc1ccc(CNC(=O)c2cc3c(=O)n(C)c4ccccc4c3n2C)cc1 4.35%, O=C(COc1ccccc1)Nc1nnc(S(=O)(=O)N2CCCCCC2)s1 3.53%, Cc1ccccc1-c1nnc(C2CCN(S(=O)(=O)c3ccc(Cl)cc3)CC2)o1 -21%, CCc1ccc(CNC(=O)CCCN2C(=O)c3cccnc3Oc3ccc(Cl)cc32)cc1 31.2%, O=C(Nc1cccc2cccnc12)c1ccc(F)cc1 1.82%, CCOC(=O)c1ccc(N2C(=O)c3[nH]nc(-c4ccc(OCC)cc4)c3C2c2ccc(OC)cc2OC)cc1 (stereo not given) -7.81%, CCc1ccc2oc(-c3ccc(NC(=O)c4cc(OC)c(OC)c(OC)c4)cc3)nc2c1 -10.4%, CCOc1cc(C2CC(=O)Nc3nc(SCc4ccccc4)[nH]c(=O)c32)ccc1O (stereo not given) 10.4%, CCC(C)NC(=O)c1ccc2c(c1)N(Cc1ccccc1)C(=O)c1ccccc1S2 (stereo not given) -8.08%, Cc1ccccc1-n1c(SCc2ccc(Cl)cc2)nc2[nH]ncc2c1=O -2.84%, CCOc1ccc(CNC(=O)C2CCCN(S(=O)(=O)c3ccc4c(ccn4C)c3)C2)cc1 (stereo not given) -12.6%, CCN(CC)c1cc2c(cc1F)c(=O)c(S(=O)(=O)c1ccc(OC)cc1)cn2CC 13.2%, CCOC(=O)c1ccccc1NC(=O)N(C(C)C)C1CCN(C(C)=O)CC1 -7.44%, CCOC(=O)Cn1c(=O)n(-c2ccccc2OC)c2nc(-c3cccc(F)c3)nc(C(N)=O)c21 -8.3%, COc1ccc(-c2c3c(=O)n(C)c(=O)n(C)c3c3c(C)nc4ccccc4n23)cc1 0.52%, Cn1nnc2c(N3CCN(c4ccccc4Cl)CC3)ncnc21 -7.42%, COc1ccc(-c2nc(CN3CCC(C(=O)NCc4ccccc4)CC3)c(C)o2)cc1OC 3.13%, O=C(NCCc1ccccc1)c1nnc(Cc2cccc(F)c2)o1 -12.7%, COc1ccc(-c2nc(C)c(CCNS(=O)(=O)c3cc(C)c(C)cc3C)s2)cc1 -14.7%, CN(C)CCNC(=O)c1ccc2c(=O)n3c(nc2c1)CCCCC3 -9.71%, CCOC(=O)c1cccnc1SCC(=O)Nc1ccc(C)cc1C 9.34%, COC(=O)N[C@H](C(=O)N1CCC[C@@H]1c1ncc(-c2ccc(-c3ccc(-c4cnc([C@@H]5CCCN5C(=O)[C@@H](NC(=O)OC)C(C)C)[nH]4)cc3)cc2)[nH]1)C(C)C -7.89%, CCN(Cc1ccccc1)C(=O)CN(c1ccc(OC)cc1)S(=O)(=O)c1c(C)nn(C)c1C 7.25%, CCc1ccc(NC(=O)c2ccc3[nH]c(C)c(C)c3c2)cc1 4.13%, Cc1ccc(C)c(Cn2cc(S(=O)(=O)c3ccc(Cl)cc3)c(=O)c3cc(F)ccc32)c1 1.03%, CCOc1ccc(NC(=O)Cn2c(=O)n(-c3cccc(OC)c3)c(=O)c3c4c(sc32)CCCC4)cc1 0.175%, COc1ccc(Cl)cc1NS(=O)(=O)c1ccc2c(c1)NC(=O)CC(=O)N2 2.49%, CCSc1ncc(Cl)c(C(=O)Nc2ccc(S(=O)(=O)N3CCCCC3)cc2)n1 -11.2%, O=C(CCS(=O)(=O)c1cccs1)Nc1ccc(C(=O)Nc2ccccc2F)cc1 1.88%, COCCNC(=O)Cn1c(=O)n(CCCCCC(=O)NCc2ccc3c(c2)OCO3)c(=O)c2sccc21 -4.75%, CCOCCCNc1ncnc2c1cnn2-c1ccc(C)c(C)c1 -30.9%, Cc1cc2c(cc1S(=O)(=O)N1CCCCC1)OCC(=O)N2 10.4%, CCOC(=O)C1CCN(C(=O)Cn2c(=O)oc3cc(S(=O)(=O)N4CCC(C)CC4)ccc32)CC1 11.3%, Cc1ccc(-c2c(C)n3c4c(=O)n(C)c(=O)n(C)c4nc3n2CCO)cc1 3.67%, CC(C)(C)c1ccc(S(=O)(=O)N2CCN(Cc3noc(CCC(=O)N4CCCCC4)n3)CC2)cc1 -5.89%, CCNc1nc(OC)nc(Oc2ccc(=O)[nH]n2)n1 17.6%, COc1ccc(-c2nc(CSc3nncn4c3cc3sccc34)c(C)o2)cc1OC -0.983%, Cc1ccc(-c2nc3sc(CCNC(=O)c4ccc(C)c(C)c4)c(C)n3n2)cc1 -17.5%, COc1ccc(C(=O)n2nc(-c3ccco3)nc2NCc2cccs2)cc1OC -6.17%, CCc1ccc(NC(=O)CSC2=Nc3ccccc3C3=NC(CCC(=O)NCc4ccco4)C(=O)N23)cc1 (stereo not given) -0.477%, COc1ccc(-c2nnc(SCC(=O)Nc3ccc(C(C)C)cc3)nc2-c2ccc(OC)c(OC)c2)cc1OC -6.41%, COc1ccc(NC(=O)CC2C(=O)N(c3cccc(C)c3)C(=O)N2C2CCCCC2)cc1 (stereo not given) 1.99%, CC(=O)c1cccc(NC(=O)c2cc(-c3ccc(Cl)s3)nc3ccccc23)c1 1.93%, CCOc1ccccc1CNS(=O)(=O)c1ccc2[nH]c(=O)ccc2c1 -13.3%, CC(C)Cc1ccc(S(=O)(=O)Nc2cc3c(cc2N2CCOCC2)n(C)c(=O)c(=O)n3C)cc1 -6.58%, Cc1ccc(C)c(Cn2c(-c3cccs3)nc3ccccc32)c1 -0.0844%, COc1cccc(C(=O)Nc2ccc(-c3cc(C(F)(F)F)nn3-c3ccccc3)cc2)c1 -5.66%, CCC(C)(Oc1ccc(C2(c3ccc(OC(C)(CC)C(=O)O)cc3)CCCCC2)cc1)C(=O)O (stereo not given) -18.2%, CC(C)c1ccc(S(=O)(=O)c2nnn3c2nc(N2CCCCC2)c2sccc23)cc1 -0.725%, COc1cccc(Nc2sc(C(=O)c3ccc(F)cc3)c(N)c2C(=O)NCc2ccc(Cl)cc2)c1 3.94%, CCN(CCCNC(=O)CN1N=C(c2ccc(OC)cc2)CCC1=O)c1cccc(C)c1 21.8%, COc1ccc(NC(=O)CSc2nnc(NC(=O)Nc3ccc(OC)cc3)s2)cc1 -21.5%, CCC(C(=O)Nc1c(C)cc(C)cc1C)n1c(=O)c(-c2ccccc2NC(C)=O)nc2ccccc21 (stereo not given) 2.45%, Cc1ccc(-c2noc(CNC(=O)c3ccc(Br)o3)n2)cc1 -24.7%, COc1ccc(-c2ccc(NS(=O)(=O)c3ccc(C(C)=O)cc3)cc2)nn1 3.84%, Cc1cccc(N2CCN(C(=O)c3cn(CC(C)C)c(=O)c4c3c3ccccc3n4C)CC2)c1C 3.67%, COc1cc2nccc(Oc3ccc(NC(=O)NC4CC4)c(Cl)c3)c2cc1C(N)=O -1.22%, Cc1cccc(N2CCN(C(=O)c3cccc(-n4c(C)nc5cccnc54)c3)CC2)c1C 8.35%, CCCCCCOc1ccc(C2C(=O)N(C3CCCCC3)CC(=O)N2CCC)cc1 (stereo not given) -30%
